Screen size: about 39,000 compounds; about 220 (0.56%) showed activity. This is one part of the list.
System: Escherichia coli K-12 BW25113
Assay: relative growth (OD600 normalised to plate interquartile mean) (fraction); higher = less growth inhibition, active = 0.2 or less
Conditions: 50 µM; LB; incubation time: overnight (16-24 h)
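Further: static incubation at 37 °C against the wild-type strain, values averaged over two biological replicates.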

| Compound | relative growth |
| --- | --- |
| Cc1cc(N2C(=O)CCC2=O)no1 | inactive: 1.02 |
| C[C@@H]1CCCCO[C@H](CN(C)CC2CC2)[C@@H](C)CN([C@H](C)CO)C(=O)c2cc(NC(=O)Nc3ccccc3)ccc2O1 | inactive: 0.966 |
| C[C@@H]1CN([C@@H](C)CO)C(=O)Cc2cc(NS(=O)(=O)c3ccccc3)ccc2O[C@H]1CN(C)Cc1ccc2c(c1)OCO2 | inactive: 0.996 |
| COc1ccc(S(=O)(=O)N(C)C[C@H]2OCCCC[C@H](C)Oc3ccc(NC(=O)Nc4ccc(F)cc4)cc3C(=O)N([C@H](C)CO)C[C@H]2C)cc1 | inactive: 0.991 |
| C[C@@H]1CN([C@H](C)CO)C(=O)c2cc(NC(=O)CCN3CCOCC3)ccc2O[C@@H]1CN(C)Cc1ccncc1 | inactive: 1.01 |
| CCCCCCCCCCCCCCCc1cccc(OCC)c1C(=O)Nc1ccc(Cl)c(C(F)(F)F)c1 | inactive: 1.03 |
| C[C@H]1CN([C@@H](C)CO)C(=O)Cc2cc(NC(=O)Nc3ccc(F)cc3)ccc2O[C@@H]1CN(C)Cc1ccc(C(=O)Nc2ccccc2N)cc1 | inactive: 1.03 |
| CC(C)c1ccc(/C=C/C(=O)O)cc1 | inactive: 0.992 |
| F[C@H]1CCNC1 | inactive: 1 |
| C[C@H]1CN([C@@H](C)CO)C(=O)c2cc(Br)cnc2O[C@@H]1CN(C)S(=O)(=O)c1ccc(F)cc1 | inactive: 1.01 |
| COC(=O)c1c(C)c2c(c(C)c1O)OC(=O)c1c(C)c(Cl)c(O)c(Cl)c1O2 | inactive: 0.989 |
| COc1ccc(NC(=O)Nc2ccc3c(c2)CC(=O)N([C@H](C)CO)C[C@H](C)[C@@H](CN(C)Cc2ccc(C(F)(F)F)cc2)O3)cc1 | inactive: 0.987 |
| C[C@H](CO)N1C[C@H](C)[C@H](CN(C)Cc2ccc(C(F)(F)F)cc2)Oc2c(NC(=O)NC3CCCCC3)cccc2C1=O | inactive: 0.864 |
| O=C(N[C@@H](c1ccc(-c2ccccc2)cc1)c1cnccn1)C1CCN(CCOc2ccc(F)cc2)CC1 | inactive: 0.946 |
| Cc1noc(C)c1NC(=O)N(C)C[C@@H]1Oc2cc(Br)ccc2S(=O)(=O)N([C@H](C)CO)C[C@@H]1C | inactive: 0.97 |
| C[C@@H]1CN([C@@H](C)CO)C(=O)c2cc(NC(=O)NC3CCCCC3)ccc2O[C@@H](C)CCCCO[C@H]1CN(C)Cc1ccccc1 | inactive: 0.988 |
| O=C(Cc1ccc(-c2ccccc2)cc1)Nc1c(C(=O)Nc2ccc3c(c2)OCCO3)oc2ccccc12 | inactive: 1.05 |
| CO[C@@H](CN(C)C(=O)c1ccc2c(c1)OCO2)[C@@H](C)CN([C@H](C)CO)S(=O)(=O)c1ccc(Cl)cc1 | inactive: 1.01 |
| C[C@H]1CN([C@@H](C)CO)S(=O)(=O)c2ccc(C#CCN(C)C)cc2O[C@@H]1CN(C)C(=O)C1CCCCC1 | inactive: 1.01 |
| O=C(C1=C[C@@H](c2csc3ccccc23)C[C@@H](OCc2ccc(CO)cc2)O1)N1CCN(Cc2ccccc2)CC1 | inactive: 1.02 |
| Cc1noc(C)c1S(=O)(=O)N(C)C[C@@H]1OCc2cn(nn2)CCCC(=O)N([C@H](C)CO)C[C@H]1C | inactive: 0.994 |
| C[C@H](N)C12CC3CC(CC(C3)C1)C2 | inactive: 0.975 |

| Compound | relative growth |
| --- | --- |
| COCCc1nc2c([nH]1)c(=O)n(C)c(=O)n2C | inactive: 0.97 |
| CCCNC(=O)N1C[C@H](C)[C@@H](OC)CN(C)C(=O)c2cc(NS(=O)(=O)CC(F)(F)F)ccc2OC[C@H]1C | inactive: 0.956 |
| COc1ccc(CN(C)C[C@H]2OCCCC[C@@H](C)Oc3ccc(NS(=O)(=O)c4ccc(Cl)cc4)cc3C(=O)N([C@H](C)CO)C[C@@H]2C)cc1 | inactive: 1 |
| CCC(=O)O[C@H]1[C@@H]2CC3=C4CC(=O)O[C@@H](c5ccoc5)[C@]4(C)CC[C@@H]3[C@@](C)(C2=O)[C@@H](CC(=O)OC)C1(C)C | inactive: 0.993 |
| Cc1noc(C)c1S(=O)(=O)N(C)C[C@H]1Oc2ccc(NS(=O)(=O)c3ccc(F)cc3)cc2CC(=O)N([C@H](C)CO)C[C@@H]1C | inactive: 1.04 |
| C[C@@H]1CN([C@@H](C)CO)C(=O)c2ccccc2-c2ccccc2CO[C@@H]1CN(C)S(=O)(=O)c1ccc(C(F)(F)F)cc1 | inactive: 1.03 |
| C=C(C)C(=O)N1CCC=CC1=O | inactive: 0.987 |
| O=C(O)c1cnc(N2CCCC2)nc1 | inactive: 1.03 |
| C[C@H]1CN([C@@H](C)CO)C(=O)c2cccc(NS(=O)(=O)c3ccc(F)cc3)c2O[C@H]1CN(C)C(=O)Nc1cccc2ccccc12 | inactive: 0.973 |
| C[C@@H]1CCCCO[C@H](CN(C)Cc2ccc3c(c2)OCO3)[C@H](C)CN([C@@H](C)CO)C(=O)c2cc(NS(=O)(=O)c3ccccc3)ccc2O1 | inactive: 0.971 |
| COc1c(-c2ccccc2)oc2c(ccc3ccoc32)c1=O | inactive: 0.916 |
| COc1ccccc1-c1ccc2c(c1)O[C@@H](CN(C)C(=O)c1cccnc1)[C@@H](C)CN([C@H](C)CO)S2(=O)=O | inactive: 0.907 |
| C[C@H](CO)N1C[C@H](C)[C@@H](CN(C)C(=O)NC2CCCCC2)OCCCC[C@H](C)Oc2ccc(NC(=O)Nc3ccccc3)cc2C1=O | inactive: 1.01 |
| O=c1c(O[C@@H]2O[C@H](CO)[C@@H](O)[C@H](O)[C@H]2O)c(-c2ccc(O)c(O)c2)oc2cc(O)cc(O)c12 | inactive: 1.04 |
| C[C@@H]1CN([C@@H](C)CO)C(=O)c2cccc(NC(=O)C3CCOCC3)c2O[C@H]1CN(C)S(=O)(=O)c1cccs1 | inactive: 1 |
| Cc1noc(C)c1S(=O)(=O)N(C)C[C@@H]1Oc2ccc(NS(=O)(=O)c3ccc(F)cc3)cc2CC(=O)N([C@H](C)CO)C[C@@H]1C | inactive: 1 |
| C[C@H](CO)N1C[C@H](C)[C@H](CN(C)C(=O)CCC(F)(F)F)OCCCC[C@H](C)Oc2ccc(NC(=O)Cc3ccccc3)cc2C1=O | inactive: 1.04 |
| C[C@H]1CN([C@@H](C)CO)C(=O)c2cccc(NS(=O)(=O)c3ccc(F)cc3)c2O[C@@H]1CN(C)C(=O)Nc1ccc(C(F)(F)F)cc1 | inactive: 0.978 |
| Cc1ccc2nncn2n1 | inactive: 1 |
| Cc1ccc(S(=O)(=O)N(C)C[C@H]2Oc3ccc(NC(=O)c4ccncc4)cc3C(=O)N([C@H](C)CO)C[C@@H]2C)cc1 | inactive: 1.01 |
| O=C1[C@H]2[C@H](O)CS[C@H]2C(=O)N1c1ccccc1 | inactive: 1 |
| Cc1ccc(S(=O)(=O)Nc2ccc3c(c2)CC(=O)N([C@H](C)CO)C[C@@H](C)[C@@H](CN(C)Cc2ccncc2)O3)cc1 | inactive: 0.876 |

| Compound | relative growth |
| --- | --- |
| Cc1noc(C)c1S(=O)(=O)Nc1ccc2c(c1)CC(=O)N([C@H](C)CO)C[C@@H](C)[C@@H](CN(C)S(=O)(=O)c1c(C)noc1C)O2 | inactive: 1.01 |
| Cc1ccc(C)c(OCCCC(C)(C)C(=O)O)c1 | inactive: 1.18 |
| Cc1cc(C(=O)Nc2cccc3c2O[C@@H](CN(C)C(=O)NC(C)C)[C@@H](C)CN([C@H](C)CO)C3=O)n(C)n1 | inactive: 1 |
| C[C@@H]1CN([C@@H](C)CO)C(=O)Cc2cc(NC(=O)C3CCCCC3)ccc2O[C@H]1CN(C)Cc1ccc(Oc2ccccc2)cc1 | inactive: 1.02 |
| CCOC(=O)c1c(CN2CCN(c3ccccc3)CC2)n(-c2ccccc2)c2cc(Br)c(O)cc12 | inactive: 1.03 |
| C[C@H](CO)N1C[C@H](C)[C@H](CN(C)C(=O)Nc2ccc(C(F)(F)F)cc2)OCCCC[C@H](C)Oc2ccc(NS(=O)(=O)c3ccc(F)cc3)cc2C1=O | inactive: 1.03 |
| OC[C@H]1O[C@@H](n2cnc3c(NCc4ccco4)ncnc32)[C@H](O)[C@@H]1O | inactive: 0.956 |
| CCn1c2c(c3cc(C4CCCCC4)ccc31)CCC/C2=N\O | inactive: 1.04 |
| Cc1ccc(S(=O)(=O)N(C)C[C@H]2Oc3ccc(NC(=O)CCCN(C)C)cc3CC(=O)N([C@H](C)CO)C[C@H]2C)cc1 | inactive: 0.988 |
| C[C@@H]1CCCCO[C@H](CN(C)Cc2ccc(Cl)c(Cl)c2)[C@@H](C)CN([C@@H](C)CO)C(=O)c2cc(NC(=O)c3ccccc3)ccc2O1 | inactive: 1.01 |
| NCc1ccccc1Oc1ccccc1 | inactive: 0.993 |
| O=C(C[C@H]1C[C@H]2c3cc(NC(=O)c4ccc5c(c4)OCO5)ccc3O[C@H]2[C@H](CO)O1)NCCc1ccccc1 | inactive: 1.04 |
| COc1ccc(CN(C)C[C@@H]2Oc3ccc(NS(=O)(=O)c4c(C)noc4C)cc3CC(=O)N([C@H](C)CO)C[C@@H]2C)cc1 | inactive: 1.01 |
| C[C@H](CO)N1C[C@H](C)[C@@H](CN(C)C(=O)Nc2cccc3ccccc23)Oc2c(NC(=O)Nc3ccccc3)cccc2C1=O | inactive: 1.02 |
| CC(C)NC(=O)N[C@H]1C=C[C@H](CC(=O)O)O[C@@H]1CO | inactive: 0.976 |
| OCCCC1=C[C@H](c2ccc(CN3CCCC3)cc2)N(Cc2cc3c(cc2Br)OCO3)CC1 | inactive: 1.03 |
| O=S1(=O)CCC(O)CC1 | inactive: 0.999 |
| CC[N+](C)(C)c1cccc(O)c1.[Cl-] | inactive: 1.13 |
| CN1CCN(C(=O)C[C@H]2CC[C@H]3[C@@H](COC[C@H](O)CN3C(=O)Nc3ccc4c(c3)OCO4)O2)CC1 | inactive: 1 |
| C[C@H](CO)N1C[C@H](C)[C@H](CN(C)S(C)(=O)=O)Oc2ccc(NC(=O)c3ccncc3)cc2CC1=O | inactive: 1.02 |
| COc1ccc(S(=O)(=O)N[C@@H]2C=C[C@@H](CC(=O)N3CCN(c4ccccc4)CC3)O[C@H]2CO)cc1 | inactive: 1.03 |
| Cc1ccc(S(=O)(=O)Nc2ccc3c(c2)C(=O)N([C@H](C)CO)C[C@H](C)[C@@H](CN(C)C(=O)NC2CCCCC2)OCCCC[C@@H](C)O3)cc1 | inactive: 1.07 |
